Data published in the supplement of paper PMC4166925.
± gives the standard deviation of the averaged measurements. In all, about 33,000 sequences were measured (“E-score (dimensionless, -0.5 to 0.5)”: median about -0.046, highest 2% from about 0.36 on). The list shows a part of the results.

These sequences were tested on T1, SpTbr T-box DNA-binding domain (GST fusion) (assay: PBM E-score of 8-mer (E-score (dimensionless, -0.5 to 0.5)); Tbr is Tbrain of the sea star Patiria miniata (Pm) or the sea urchin Strongylocentrotus purpuratus (Sp); higher = stronger binding preference; most listed sequences are background and not binding sites). Details: the construct has about 5 more residues each side.
T1 sequence: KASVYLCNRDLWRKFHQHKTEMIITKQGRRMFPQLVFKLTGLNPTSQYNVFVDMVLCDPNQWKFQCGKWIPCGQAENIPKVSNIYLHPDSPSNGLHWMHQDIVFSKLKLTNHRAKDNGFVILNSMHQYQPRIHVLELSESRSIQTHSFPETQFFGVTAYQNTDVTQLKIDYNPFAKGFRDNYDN
Outline: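 Each ungapped 8-mer received an enrichment E-score from the Universal PBM Analysis Suite, averaged over duplicate arrays. The proteins were Tbr T-box DNA-binding domains, covering the whole T-box plus about five flanking residues, fused to GST and expressed in BL21 E. coli at 20 °C before glutathione affinity purification. Universal Agilent oligonucleotide arrays were made double-stranded by primer extension and incubated with 200 nM protein in PBS (pH 7.5). The arrays were then scanned and quantified, and every 8-mer was scored from probe intensities.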

Row | Sequence | PBM E-score of 8-mer
1 | CTCTTGGA | -0.2 ± 0.00063
2 | GAAATCTC | 0.0351 ± 0.0081
3 | GGCCGTCA | 0.029 ± 0.026
4 | AAAGTCCG | 0.0167 ± 0.069
5 | AGACTGAA | -0.164 ± 0.0092
6 | ACCTCCAT | 0.0951 ± 0.0064
7 | CCCGTTCG | 0.0398 ± 0.071
8 | AACTTGGT | -0.0559 ± 0.074
9 | CACGAGAC | -0.0763 ± 0.018
10 | CCGAACTA | -0.132 ± 0.026
11 | ATTCAGAG | -0.133 ± 0.01
12 | GTCGGTCA | -0.0581 ± 0.011
13 | ACGCCTAG | 0.269 ± 0.023
14 | AAACGGTT | -0.101 ± 0.098
15 | CGGGTCAC | 0.195 ± 0.02
16 | CGTATCAG | 0.0421 ± 0.075
17 | AGAATCGA | -0.069 ± 0.012
18 | GTGCGTCA | 0.187 ± 0.009
19 | CAACTAGC | 0.0176 ± 0.017
20 | CTTTTAAC | 0.114 ± 0.064
21 | GTGCCGTA | -0.0304 ± 0.0083
22 | GGTACGCA | -0.181 ± 0.028

Row | Sequence | PBM E-score of 8-mer
23 | CGGACAGA | -0.144 ± 0.016
24 | CCCGGACA | 0.0253 ± 0.053
25 | ATCCAGCC | -0.0901 ± 0.0022
26 | CTTATGTA | -0.274 ± 0.063
27 | TAACGTAA | -0.146 ± 0.036
28 | ACACGCGA | 0.262 ± 0.056
29 | TAGATTCA | -0.00728 ± 0.084
30 | GAGGAGGA | -0.0237 ± 0.037
31 | CCCTGCCG | 0.055 ± 0.051
32 | AATTATTG | -0.246 ± 0.057
33 | ACCGGTAA | -0.0482 ± 0.092
34 | GTGTCGTA | 0.3153 ± 0.0016
35 | ACCGTTAG | 0.0867 ± 0.055
36 | AGCCAATG | -0.218 ± 0.056
37 | AATATGAC | 0.0199 ± 0.11
38 | CCTATTAA | -0.139 ± 0.069
39 | CTCTCAGA | -0.187 ± 0.0034
40 | ACTCGTGG | -0.0812 ± 0.051
41 | CAGATAAC | 0.0585 ± 0.039
42 | GCCGTACA | -0.145 ± 0.04
43 | CCCGCATA | -0.195 ± 0.013
44 | AGAGAGGA | -0.144 ± 0.0029

Row | Sequence | PBM E-score of 8-mer
45 | ATTTCTGC | -0.201 ± 0.01
46 | CTTAAGCA | -0.00802 ± 0.015
47 | CCGCCAAC | 0.184 ± 0.013
48 | GTGAGAAA | 0.441 ± 0.016
49 | CCACGGGG | -0.00017 ± 0.037
50 | AAAGAGTT | 0.0902 ± 0.077
51 | AAACAACC | 0.00173 ± 0.005
52 | GTTAGAAA | 0.13 ± 0.031
53 | CCCTTTCG | -0.000915 ± 0.066
54 | AACTTCAC | 0.147 ± 0.036
55 | AGGCTAGC | -0.0657 ± 0.01
56 | AGTTCTAG | -0.104 ± 0.036
57 | CAGCCAAG | -0.0575 ± 0.018
58 | AACTGGGG | -0.216 ± 0.021
59 | ATGTAACG | -0.0468 ± 0.037
60 | AAAGACAC | 0.148 ± 0.0063
61 | ATACTACC | -0.127 ± 0.025
62 | CGAACAAC | 0.1781 ± 9.9e-05
63 | ATAATACA | -0.113 ± 0.092
64 | CGTCAGCC | 0.0402 ± 0.028
